Source: the supplement of paper PMC8728848
This is one part of the list.

Assays:
Test in all cases: glycan array binding signal (z-score within array); higher = stronger binding
Settings in all cases: glycan notation: IUPAC condensed, linker removed
Gal(a1-3)Gal = target: Gal(a1-3)Gal
Procedure, shortened: (§1)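 Glycan array data were curated from 3228 arrays in the Consortium for Functional Glycomics database and kept only where the protein sequence was available. Glycan names were converted to IUPAC-condensed notation, and columns mapping to the same glycan were averaged. The binding signal is a within-array Z-score, averaged across arrays of the same protein sequence at different concentrations or buffers and across linkers. Negative Z-scores can be read as non-binding.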

Gal(a1-3)Gal(b1-3)GlcNAc = target: Gal(a1-3)Gal(b1-3)GlcNAc
Procedure, shortened: as §1

[1] = target: Gal(a1-3)Gal(b1-3)GlcNAc(b1-2)Man
Procedure, shortened: as §1

[2] = target: Gal(a1-3)Gal(b1-3)GlcNAc(b1-2)Man(a1-3)[Gal(a1-3)Gal(b1-3)GlcNAc(b1-2)Man(a1-6)]Man(b1-4)GlcNAc(b1-4)GlcNAc
Procedure, shortened: as §1

[3] = target: Gal(a1-3)Gal(b1-3)GlcNAc(b1-3)GalNAc
Procedure, shortened: as §1

[4] = target: Gal(a1-3)Gal(b1-3)GlcNAc(b1-6)GalNAc
Procedure, shortened: as §1

[5] = target: Gal(a1-3)Gal(b1-3)[Fuc(a1-4)]GlcNAc(b1-2)Man(a1-3)[Gal(a1-3)Gal(b1-3)[Fuc(a1-4)]GlcNAc(b1-2)Man(a1-6)]Man(b1-4)GlcNAc(b1-4)GlcNAc
Procedure, shortened: as §1

Gal(a1-3)Gal(b1-4)Glc = target: Gal(a1-3)Gal(b1-4)Glc
Procedure, shortened: as §1

Gal(a1-3)Gal(b1-4)GlcNAc = target: Gal(a1-3)Gal(b1-4)GlcNAc
Procedure, shortened: as §1

[6] = target: Gal(a1-3)Gal(b1-4)GlcNAc(b1-2)Man
Procedure, shortened: as §1

[7] = target: Gal(a1-3)Gal(b1-4)GlcNAc(b1-2)Man(a1-3)[Gal(a1-3)Gal(b1-4)GlcNAc(b1-2)Man(a1-6)]Man(b1-4)GlcNAc(b1-4)GlcNAc
Procedure, shortened: as §1

[8] = target: Gal(a1-3)Gal(b1-4)GlcNAc(b1-3)GalNAc
Procedure, shortened: as §1

[9] = target: Gal(a1-3)Gal(b1-4)GlcNAc(b1-6)GalNAc
Procedure, shortened: as §1

[10] = target: Gal(a1-3)Gal(b1-4)[Fuc(a1-3)]GlcNAc
Procedure, shortened: as §1

[11] = target: Gal(a1-3)Gal(b1-4)[Fuc(a1-3)]GlcNAc(b1-2)Man(a1-3)[Gal(a1-3)Gal(b1-4)[Fuc(a1-3)]GlcNAc(b1-2)Man(a1-6)]Man(b1-4)GlcNAc(b1-4)GlcNAc
Procedure, shortened: as §1

Gal(a1-3)GalNAc = target: Gal(a1-3)GalNAc
Procedure, shortened: as §1

[12] = target: Gal(a1-3)[Gal(a1-4)]Gal(b1-4)GlcNAc
Procedure, shortened: as §1

[13] = target: Gal(a1-4)Gal(b1-3)GlcNAc(b1-2)Man(a1-3)[Gal(a1-4)Gal(b1-3)GlcNAc(b1-2)Man(a1-6)]Man(b1-4)GlcNAc(b1-4)GlcNAc
Procedure, shortened: as §1

Gal(a1-4)Gal(b1-4)Glc = target: Gal(a1-4)Gal(b1-4)Glc
Procedure, shortened: as §1

Gal(a1-4)Gal(b1-4)GlcNAc = target: Gal(a1-4)Gal(b1-4)GlcNAc
Procedure, shortened: as §1

[14] = target: Gal(a1-4)Gal(b1-4)GlcNAc(b1-2)Man(a1-3)[Gal(a1-4)Gal(b1-4)GlcNAc(b1-2)Man(a1-6)]Man(b1-4)GlcNAc(b1-4)GlcNAc
Procedure, shortened: as §1

[15] = target: Gal(a1-4)Gal(b1-4)GlcNAc(b1-3)Gal(b1-4)Glc
Procedure, shortened: as §1

Gal(a1-4)GlcNAc = target: Gal(a1-4)GlcNAc
Procedure, shortened: as §1

Gal(a1-6)Glc = target: Gal(a1-6)Glc
Procedure, shortened: as §1

Gal(b1-2)Gal = target: Gal(b1-2)Gal
Procedure, shortened: as §1

Gal(b1-3)Gal = target: Gal(b1-3)Gal
Procedure, shortened: as §1

Gal(b1-3)Gal(b1-4)GlcNAc = target: Gal(b1-3)Gal(b1-4)GlcNAc
Procedure, shortened: as §1

Gal(b1-3)GalNAc = target: Gal(b1-3)GalNAc
Procedure, shortened: as §1

[16] = target: Gal(b1-3)GalNAc(a1-3)[Fuc(a1-2)]Gal(b1-4)Glc
Procedure, shortened: as §1

[17] = target: Gal(b1-3)GalNAc(a1-3)[Fuc(a1-2)]Gal(b1-4)GlcNAc
Procedure, shortened: as §1

Gal(b1-3)GalNAc(b1-3)Gal = target: Gal(b1-3)GalNAc(b1-3)Gal
Procedure, shortened: as §1

[18] = target: Gal(b1-3)GalNAc(b1-3)Gal(a1-4)Gal(b1-4)Glc
Procedure, shortened: as §1

[19] = target: Gal(b1-3)GalNAc(b1-4)Gal(b1-4)Glc
Procedure, shortened: as §1

[20] = target: Gal(b1-3)GalNAc(b1-4)[Neu5Ac(a2-3)]Gal(b1-4)Glc
Procedure, shortened: as §1

Gal(b1-3)GlcNAc = target: Gal(b1-3)GlcNAc
Procedure, shortened: as §1

[21] = target: Gal(b1-3)GlcNAc(a1-3)Gal(b1-4)GlcNAc
Procedure, shortened: as §1

[22] = target: Gal(b1-3)GlcNAc(a1-6)Gal(b1-4)GlcNAc
Procedure, shortened: as §1

Gal(b1-3)GlcNAc(b1-2)Man = target: Gal(b1-3)GlcNAc(b1-2)Man
Procedure, shortened: as §1

B1: Sebin1 (Coprinopsis cinerea), A8PEE3 (protein)
chain: MTSPFYAHIHNVQDDNTWRFTLIFANRATADEWWRAISEAPANTSIAKSITRVTPQYYTHDVNIWNIWNFFADGNIKSISERFRGRLFIVLENDRGGRGITVIPPVPIVDHVSGNWFYIRSKTAPHLFWYYDERRSSIYASKEKRTRFKISIRNPSSQTPKNAIMINTDDVTIHIKENLYVGVDNNLGHIIPTRAYRTFKFGELESGAIAGFDVVENIEERCSSTFDGASLSISGPDSSSPGEPWELV
Gal(a1-3)Gal
  glycan array binding signal (z-score): -0.231
Gal(a1-3)Gal(b1-3)GlcNAc
  glycan array binding signal (z-score): -0.043
[1]
  glycan array binding signal (z-score): -0.255
[2]
  glycan array binding signal (z-score): 1.51
[3]
  glycan array binding signal (z-score): -0.287
[4]
  glycan array binding signal (z-score): 1.21
[5]
  glycan array binding signal (z-score): 2.45
Gal(a1-3)Gal(b1-4)Glc
  glycan array binding signal (z-score): -0.013
Gal(a1-3)Gal(b1-4)GlcNAc
  glycan array binding signal (z-score): 0.156
[6]
  glycan array binding signal (z-score): -0.426
[7]
  glycan array binding signal (z-score): 1.2
[8]
  glycan array binding signal (z-score): 0.527
[9]
  glycan array binding signal (z-score): 0.435
[10]
  glycan array binding signal (z-score): 0.193
[11]
  glycan array binding signal (z-score): 0.056
Gal(a1-3)GalNAc
  glycan array binding signal (z-score): -0.325
[12]
  glycan array binding signal (z-score): -0.382
[13]
  glycan array binding signal (z-score): 0.633
Gal(a1-4)Gal(b1-4)Glc
  glycan array binding signal (z-score): -0.218
Gal(a1-4)Gal(b1-4)GlcNAc
  glycan array binding signal (z-score): -0.459
[14]
  glycan array binding signal (z-score): -0.097
[15]
  glycan array binding signal (z-score): 0.725
Gal(a1-4)GlcNAc
  glycan array binding signal (z-score): -0.777
Gal(a1-6)Glc
  glycan array binding signal (z-score): -0.335
Gal(b1-2)Gal
  glycan array binding signal (z-score): -0.598
Gal(b1-3)Gal
  glycan array binding signal (z-score): -0.491
Gal(b1-3)Gal(b1-4)GlcNAc
  glycan array binding signal (z-score): 1.78
Gal(b1-3)GalNAc
  glycan array binding signal (z-score): -0.003
[16]
  glycan array binding signal (z-score): -0.695
[17]
  glycan array binding signal (z-score): 0.448
Gal(b1-3)GalNAc(b1-3)Gal
  glycan array binding signal (z-score): -0.108
[18]
  glycan array binding signal (z-score): 0.187
[19]
  glycan array binding signal (z-score): -0.364
[20]
  glycan array binding signal (z-score): -0.607
Gal(b1-3)GlcNAc
  glycan array binding signal (z-score): -0.574
[21]
  glycan array binding signal (z-score): -0.485
[22]
  glycan array binding signal (z-score): -0.03
Gal(b1-3)GlcNAc(b1-2)Man
  glycan array binding signal (z-score): -0.244
